{
  "source": "the supplement of paper PMC12632987",
  "binders": {"B1": {"name": "traf2_out_11_131_657 (protein)", "chain": "MDPVAMARSAAERVDARLEHAKTLSPAERTRVAERALDSLEALAEYMKEHVDEMSKEDIEEAVKILRESAEKILAFDPSVAAEVEEVEKALEELLKAAEA"}, "B2": {"name": "traf2_out_3_89_2301 (protein)", "chain": "AAAEAAKIEAARARAERYARGFRKSARFVAKQMIADGMSLDTLRGVLEAARNALVEVFREELKEQGLSEETIEELVKELTEELEKIVEEILEEAEKKRAE"}, "B3": {"name": "traf2_out_13_95_1219 (protein)", "chain": "SAEANEKIREISNKMLEESEKIIEDLAEKLKPFPETQPYIEEIKHALKTRGITEAIHVLREASEKFPEVKELFDEAIEELEKIRRDAGKEVAKILKEDEE"}, "B4": {"name": "traf2_out_6_156_2455 (protein)", "chain": "MLEEILKKTKEEIKEGIKKLAEASEEKKIRYISRIAGAVYRGLQAAREAGASLEELEKFAEELLKTAEEEAKKAGLDEKTKNLLLASLRAVADVALAAAR"}, "B5": {"name": "traf2_out_17_162_1623 (protein)", "chain": "SPEEEELKRYEEELKELEKEKKELEKKAEKIDELSKEELTDLLVEASEARRRARELAERIERKREELNDPRLEELLKRAEEIAEEFQRIANKFYKKLEEK"}, "B6": {"name": "traf2_out_6_3_2528 (protein)", "chain": "SAESLAADARTILENMGITTAEQLLALVKAEVNAVRQLVSRPDVDRADLAGARSVLALTRAMVEVAAETLPSLTEEQKKEALALIEEAEKLVEQKAAELE"}, "B7": {"name": "traf2_out_16_171_1436 (protein)", "chain": "MKEEEEKKLKEEIDKKAKELKERMDTAVEVAPLISKETGLSMEQIAAGFRSTMTDRIEALEKYFTEKAKDLSEEVKEYIKEKLEEVRKHLEEAVKKILAL"}, "B8": {"name": "traf2_out_18_167_1829 (protein)", "chain": "EEEIRKKKSELTDKMVEWSEVRRRAQALLQRLEADPSLLPEVLEELEEIAERTGRYLERVEAIKELPPEEALAATKELLEEIIEDAQRKMNELYKKYEEL"}},
  "note": "Whole data set: some 1,800 sequences, median “median log2 fold change of GCK-ALFA target abundance (FLAG IP / Myc IP barcode read proportion)” near 0.14, cut for the lowest 2% near -0.84. The list shows a part of the results.",
  "data": [
    {"biological_target": "T1, TRAF2, Q12933", "T1 chain": "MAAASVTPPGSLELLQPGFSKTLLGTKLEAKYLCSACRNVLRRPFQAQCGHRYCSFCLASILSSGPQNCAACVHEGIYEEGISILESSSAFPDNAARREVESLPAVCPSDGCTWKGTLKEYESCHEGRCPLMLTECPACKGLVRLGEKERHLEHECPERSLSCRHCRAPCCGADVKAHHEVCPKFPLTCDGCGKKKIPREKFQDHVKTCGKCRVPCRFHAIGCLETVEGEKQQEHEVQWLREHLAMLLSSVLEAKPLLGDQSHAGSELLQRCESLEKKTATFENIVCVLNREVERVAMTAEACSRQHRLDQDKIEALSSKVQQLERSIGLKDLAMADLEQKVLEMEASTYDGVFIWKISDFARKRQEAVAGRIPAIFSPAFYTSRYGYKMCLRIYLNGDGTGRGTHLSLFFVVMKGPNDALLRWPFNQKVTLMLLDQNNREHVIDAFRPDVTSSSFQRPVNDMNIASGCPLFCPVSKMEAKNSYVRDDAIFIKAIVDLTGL", "assay": "median log2 fold change of GCK-ALFA target abundance (FLAG IP / Myc IP barcode read proportion) (log2 ratio); each designed protein is fused to an ALFA-tag nanobody in HEK293 cells to bring the named protein to FLAG-tagged glucokinase (GCK); Myc marks an untargeted standard; higher = target protein stabilised (more abundant)", "details": "target protein: 3xFLAG-MCP-GCK-ALFA reporter; HEK293 landing pad (RPLP)", "outline": "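Sequencing of reverse-transcribed, amplified circular RNA barcodes from anti-FLAG and anti-Myc immunoprecipitates provided the readout for an ALFA-nanobody-fused binder library recombined into HEK293 landing-pad cells. Those cells were induced with 2 μg mL^−1 doxycycline, transfected with a plasmid expressing a FLAG-tagged target and a Myc-tagged standard, and lysed after 48 h. Target abundance is the per-binder median log2 ratio of FLAG to Myc barcode read proportions. Only barcodes at a proportion of ≥10^−7 in both replicates and binders with ≥3 barcodes per replicate were kept, with a 10^−6 pseudocount added before the two replicates were pooled.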", "values": [
      {"binder": "B1", "median log2 fold change": 0.208},
      {"binder": "B2", "median log2 fold change": -0.974},
      {"binder": "B3", "median log2 fold change": 0.0665},
      {"binder": "B4", "median log2 fold change": -0.358},
      {"binder": "B5", "median log2 fold change": 0.4},
      {"binder": "B6", "median log2 fold change": -0.59},
      {"binder": "B7", "median log2 fold change": 0.0522},
      {"binder": "B8", "median log2 fold change": 0.126}
    ]}
  ]
}
